# According to patent publication US20220153873A1 (ICAHN SCHOOL OF MEDICINE AT MOUNT SINAI, published 2022):
# No constants are given. Whether binding was seen depends on the method and setting. Some entries that bind do so weakly or less than the wild type.
# Key:
# [1] = molecular target: recombinant neuraminidase (rNA) of B/Yamagata/16/88 (influenza B virus B/Yamagata/16/88) (UniProt Q90021); assay: ELISA, rNA coated at 2 ug/mL; bar = minimal binding concentration
# [2] = molecular target: neuraminidase of B/Yamagata/16/88 virus (on virus and on infected MDCK cells) (influenza B virus B/Yamagata/16/88) (UniProt Q90021); assay: told with the ADCC result; binding by ELISA is shown in FIG. 1A
Binder,binding [1],binding [2]
"1F4 antibody (murine IgG2a, hybridoma-produced) (antibody, V domains shown, also called mAb 1F4; IF4) VH: QVHLQQSGSELRSPGSSVKLSCKDFDSEVFPIVYMRWIRQKPGHGFEWIGDILPSFGRTIYGEKFEDKATLDADTVSNTAYLELNSLTSEDSAIYYCARGDHGNWLAYWGQGTLVTVSA VL: DIVMTQSHKFMSTSVGDRVTITCKASQDVSTAVAWYQQKPGQSPKLLIYWASTRHTGVPNRFTGIISGTDYTLTISSVQAEDLALYYCQQHYSAPWTFGGGTKLEIK",binds,–
"4B2 antibody (murine IgG2a, hybridoma-produced) (antibody, V domains shown, also called mAb 4B2) VH: QIQLVQSGPELKKPGETVKISCKASGFTFTDYPMHWVKQAPGKSLKWMGWINTETEEPTYSDDFKGRFALSLETSASTTYLQINNLKNEDTATYFCARSGYYYGSTYAWFGYWGQGTLVTVSA VL: DVVMTQIPLSLPVSLGDQASISCRSSQSLIHTNGDTFLHWYLQKPGQSPKLLIYKVSNRFSGVPDRFTGGGSGTDFTLKISRVEAEDLGIYFCSQSALFPYTFGGGTNLEIK",binds,–
"4F11 antibody (murine IgG2b, hybridoma-produced) (antibody, V domains shown, also called mAb 4F11; 4F11 Hybridoma) VH: DVKLVESGGDLVKPGGSLKLSCAASGFTFSAYSMSWVRQTPERRLEWVATINTGGSFTYYPDSVKGRFTISRDNAKNTLYLQMSSLKSEDTAMYFCTRVSDYGNSAYFPYWGQGTLVIVSA VL: QVVLTQSPALISASPGEKVTMTCSASSNVNYMSWYQQRPRSSPKPWIYLTSKLASGVPPRFSGSGSGTSYSLTISSMEAEDVATYYCQQWSSDPQTFGGGTKVEIK",binds,–
"3G1 antibody (murine IgG2a, hybridoma-produced) (antibody, V domains shown, also called mAb 3G1) VH: QVQLQQSGAELMKPGASVKISCKATGYKFTSYWIGWVKQRPGHGLEWCGEIFPGSGSINYNEKFKGKATFTADTSSNTAYLQLTSLTSEDSAVYYCARGEDYYGSSYGAMDYWGQGTSLTVSS VL: DVQITQSPSYLAASPGETITINCRASKSISKYVAWYQEKPGRTNKVLIYSGSILSFGNPSRFSGSGSGTDFTLTISSLEPEDFAMYYCQQHNEYPWTFGGGTKLEIK",no binding (tested: 10 ug/ml),no binding (tested: low concentrations)
